Some of the results follow. At the low end of the ranking the order means little. The protein was read in a cell extract, so binding may be indirect.
Target: T1, HNF4alpha8 (COS-7 nuclear extract) (UniProt P41235-5)
T1 sequence: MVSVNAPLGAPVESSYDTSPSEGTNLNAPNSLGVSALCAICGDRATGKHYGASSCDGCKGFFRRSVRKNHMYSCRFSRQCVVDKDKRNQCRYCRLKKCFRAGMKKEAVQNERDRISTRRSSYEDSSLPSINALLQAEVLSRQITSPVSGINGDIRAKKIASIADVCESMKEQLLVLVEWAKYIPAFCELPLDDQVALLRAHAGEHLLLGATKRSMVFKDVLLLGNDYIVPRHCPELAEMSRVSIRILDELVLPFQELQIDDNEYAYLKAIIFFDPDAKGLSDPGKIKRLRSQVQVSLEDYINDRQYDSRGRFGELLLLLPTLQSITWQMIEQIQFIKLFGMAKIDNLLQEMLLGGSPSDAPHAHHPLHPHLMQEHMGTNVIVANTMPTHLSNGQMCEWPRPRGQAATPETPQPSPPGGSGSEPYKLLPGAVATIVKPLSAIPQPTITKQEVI
Assay: protein-binding microarray
Conditions: COS-7 nuclear extract on double-stranded Agilent 4x180k PBM; binding buffer, salt, pH and temperature not given; high values mean tight binding; double strand, one strand shown; sequences stand for … in …GCCTAGGGAGATTAGAGTATCGGTCGA

Sequence	binding signal (log2 normalized intensity)
CCTGCCTCTCCTCTGAGCTTCATCCTGACC	1.7
TGTGTTCTTGTTTGCTAAGTGAGAACACCG	-0.817
CTTAAGAACGCTTGTGATTACACTGGGCTC	-0.302
GCTGTTAAATGGAGTGGAATTTGGAGAGAA	0.124
GGTTCTCAGCTGACATTGGTGGAATCTGAA	1.27
AAGAGATTTCCTGCAGGTGGTGACCCCAGA	5.07
GTGTAATGGTTAGCACTCTGGACTCTGAAT	3.85
CTGGGACTTGCCTTTGTCCATTCACTTCCC	0.321
CAGTAGTATTACCTGCATCTGCCCAGCAGA	-1.3
GCAAACCTACCTGAACTTTGCCCCAGAGGA	6.74
CGAAATGTGGGTGAGGCTGTGATGTTTGCC	0.899
TTAATACTTTGGAACTCAGTTAATGTACAG	1.59
TGTTTCTTGTCCAGGGACTTTGAACACTTC	5.32
GATGACATCATCTGTTTGTACGCGTCGAAC	-0.313
CTTTCCGTTAGGCTACAGTGGTAACCACAG	-1.38
TGCAATGCATGCTGCCAAACTGCCCAGCAG	-1.36
TGTTTGGATTGGGCAATGACCTGGACAGGT	2.14
GACAGGAACATCTGATTTCCCCGTCCCAAG	2.88
AAGGTCACTAATTGGAAGCTCTTTCCCTCC	0.732
GGCTGTATGTACACTTGCCCTCTCACCAGA	2.25
AAAATACAGCTGGGAAAAGGCGCATGCATA	-1.32
GTTTGCATTTTAACCTTTGGCTGGTAGAGC	4.17
CACAGGCAACAGAGGAGCATGGACTTCTGA	2.36
CTGTCCCTTCTTGGCAAGTTAATGTGGCCT	2.12
GAGACCTCTAGACTCCAGCTAAAGCCTGCT	-1.26

Sequence	binding signal (log2 normalized intensity)
ACATTAATCAGTCGCGTATCTGACTTTATC	0.606
TCACTGGGAGAGAAAGCTAATTTAATAAAC	-1.33
TCCTCTTATCTTCAGGTTTGCTAATATCTG	0.818
GTAAAATGGACATAGTAACAACCTAAATCA	-1.27
TCCACTAACTTGAGTGTGCACCCTGGTCTC	2.03
AGAATAAATATTTGGTGAATAAACAAATAA	-0.867
GCCAACCTTGGGTCTACATGGAAGCCCAGA	-1.16
GCAGACATTTAGGCAAACATAAACTCAGAG	-1.19
CACCAACAGGATTGTGAAACGTTTGAATTC	-0.491
AGCCAGTGAACCTTTGTCCCGTTATGGCAC	3.48
AGCAGAGCACGATGAATAGGGACGTTCTAC	-1.31
ACAACACTCAGGATACCTAAGCCCCATGCT	0.357
GCAGTTCCTGATCTTTGACCTGGAGCATGA	5.34
ACTCTAACTGGCTTTAAGAGGAATGCTTTG	-0.731
AGGGAAGGCTGCCGTCCTCAGTGAATCACA	-1.3
TCCTGCCAAACCAGTTCAACAAGAATTCCC	-1.25
AGTCTCAAAGGTCAGATGACAGAATTGGTC	4.15
CTTCAGGATGAAGGCTGCTGCCTGAAAGGC	-1.29
GTTTTGGCCAACAGAGGGGTCAGAGGCCAG	3.37
TCAAACAGTCTAAAAACCATAGACATTCCT	-1.35
CAAACTGCCCAGCAGAAAAGCTGTACCAAT	-1.35
GGGAGGTTATCTTGGGGCTGATGTCTTTCT	1.4
AGGTTTTGAGGGAAGTGAACCAATCTTGAG	-0.233
CAGTTCAGGCCATCACACTCCTACCCATTC	-1.31
TAATCAAAGAGAAAAACATTGCATACTCAG	-1.36

Sequence	binding signal (log2 normalized intensity)
ACAGAGATCAGAATCATAAAGCAGGGAGAG	-1.25
GGCAGCTTAAAAATGTTGACGCTATTTTAG	-0.968
CAAGGAGGCCCCAACATTCCAGAGAAGCAC	-1.33
ACACAGGCTCAACGGGTTAGACGCACGGCA	-1.33
ACCAAGGCTGCTTAACAAACACAAAAAGCG	-1.37
TTGGCAGCCACTGAGGCTCTGTGCCTTGTA	-1.03
GGGACAGATGTTTGGTTGAGCAAGCTGACA	-1.31
ATTTTACACCTTTTCTAGCTGAGTTGACCT	5.15
ACCAAAGGTCTTGTACAAAGGTCCTGTGGG	2.25
TTCCATATTCTATCAGTAGGTACGTTTGTG	2.32
AACCCGGGCGCACAAGATGCCGCCTCCCCG	-1.16
AGGTGAGCAGGCAGAGGTCAATGTCCACAC	6.45
TTTTCAGACCTTGCATTCTGAGGAACCAGA	-0.979
TGAGATAGGTATGATAACCCCCGTCACTGC	3.85
TCTTTGATTAGGAAAGGGAACTCCCTGACC	0.445
GGTCTAAACCTACTTAGATCAAGATTTTCA	-1.4
TTGCATCAGCTGGGCTCGGCGCTCCGCTTA	-1.37
GGCAATATCTCCCAGCTGGAGTCTTCTCTA	-1.21
ATTTAACCTGTATTAGGAAATTGTCAGTGC	0.524
GGATTTTGGAGCCAAACAGGTGTGGGTTCA	2.27
GGCAAGGCCTCGTGAAAGTTAACTTTGTAA	0.429
GTGCGCTGCCCCTCACTGCCCAGCCTCTCC	3.18
CTTAGCCAAAGAGAAGCCTAAGCAGGGCTA	-1.33
TATTTCAGCTTTGACGCCACCTGAAGGCAG	-1.41
TGTCATCTAGACCTGGACTTGAAGCCAGAC	0.544

Sequence	binding signal (log2 normalized intensity)
CCACACGTCCCCTTCATGTTTTCACCAAGA	0.449
AGCAATCATATATGCATTTGTCTCAGGTGG	1.26
ACAACAAAGGAAATGAAGCAACACTTTCTG	-1.33
TCAAATTACAAGGAGATATGCACTTGCCCT	2.75
GAGGTCTGGACCCTTGGCACTTTCACGATA	1.79
CTCTTTGGCCTGGCATTTGAGACTAGCCAC	-1.23
GCTGGGATGATTCCCTTATCTTCTCCCCTG	1.7
AGCCTTTGAGAAGCAGGAGCATGGGGGATG	-1.42
AGCCCCTTTTGGAATCCCCATCTCACCATA	3
AGAGGTCAGCCCACAGGTCAATCCAGGTTG	1.54
GAATGTAGACCTTTACCACCCTCACAGCTC	-0.135
TTCAGCGGTGCATTTTTTTCCACCCTCCCC	4.4
CACATTAACTGTGCTTCTGGGGTATAAAGG	1.67
GTTGTACCTTGACCCAAGAAATAAAAACAG	2.84
TGAGAGGCCAGTTTCTCCACAGCCTCACCA	-1.36
TCATTCTAACCCAAATGCAAATACCTATAG	1.26
AAAAAAAAAGGCAGTCCTTAGATCCACGGA	-1.39
AATCCTGCTCCTTCTGAATCTGTTCCACCT	0.808
GAGCAAAGGGCATGGAGGATTTAGATAACA	0.728
GGAGCCACTGAAGTGAGTTAATAAATACTG	-1.4
GCTGATTACAGGTTGCAGTAAAGAAACTGG	-1.21
CAGCCTGGAGGAGGGCGAGGCCGAGCCTCA	-1.12
TGAAGTCAAAGGAGGCATTCCTGCAATCAG	-1.31
TTGCCTAACTGCTGCATGTCATGACCTTCA	3.69
AGTGGAGAAACCTGACAGACTGGACTGCTG	-0.355

Sequence	binding signal (log2 normalized intensity)
GTTCTCTAGAAACAGAGCCCAAGGCAAAGC	-1.27
AGGTCTAAGTAAACTGTTCAAGACTTTCAG	-1.24
AAAAATGATGCCTGACTCAAGAAAGGATCT	-1.22
GCTAGCTGAGAGACTTTATCCGTATAACAA	-1.27
TTTCAACATCCTCTCAGGTCAAAGTTTGCC	3.91
GTGGGTTCTAGGTAATCACCCTCTCCACCC	1.93
TTTTTTTTAACGGTCTGCCCTCTTGTCCTT	4.14
GATCTGCAGGTAGGGGTGGGATGGGGAGCA	-1.27
CTGCTGGGAGTTGTAGTTTTTTGGGCCCCT	1.52
AGCAAAGGGCAGATAACAAGGGCATGTAAA	-1.13
CTCCAAGGTACTGTGAACTCCAGCTGGGCA	-0.0636
CCAACACAGAAGCCTTTTGTTCTTTGTGTG	1.47
CAAAGGTCAACAGCCAGCCTCAAAGATCAA	3.33
CAGATCCACATCGAAGGCCAAGGGATTTCA	-1.36
CAAAGTACACTTGGAGAAAAAAAACCATTG	-1.27
GTGGAGGGCGTGTAGGGAGTGGTTCCCACA	-1.11
AATGTCAGCCTGCTCAGGGAGAAGCAAATA	-1.3
CCCCTCCCCCACACAGACAAAGACAGAGAG	3.97
GAAGATGCAACAGTGACCCAAATATGGTCC	0.641
CCTTTAGAGGGCAAGGATCAGCCCCACACT	2.48
ATGTGGTCCTAAGACTAACCTTTGACCATC	8.15
AATTCCAGGATCCAAGATCCAACTCTGAAG	-1.21
TCTGCTATCTAAAAGCTTATCTGCACAATG	-1.27
TGTGCTGTGGCTGCCAAGACACAGAGAAAA	-1.42
TTTCTTGTCTGCCCCAGGGCTTTGCAGGGA	0.902

Sequence	binding signal (log2 normalized intensity)
AATAGAGCTCTAAACCACCCAATCCTGCAG	1.57
GGGGGCAGGGCTGGTCGGATGGCCGTGGGT	-0.311
CCAAAAGCTTTACTAAAACAGGGAGCAGGC	-1.38
TATCTTGATCAGAAAAGAAAGTGAGGAATG	-1.28
CTCACTGACTTCCATCAATGAAGCATATCA	-1.37
AACCTTTGCCCCCCTGGGCTCAAGCGATCC	6.03
AAAGTCCAACACAGAAGCCTTTTGTTCTTT	2.15
ACTTTGCTGTGTCCCACAGGGAAAGTATGG	0.585
AAGGAGCCTAACTTTGATAGGCACAATCAG	-1.34
AAAACTACACTCTTGCTAAACCCTCTAACA	-0.606
TGCCCGAGCTGCCCTTTATCTCCTCTCTTC	1.69
TATGACGGTGTATGCTCTCAGTGCTAACAC	-0.868
AAGGAGTGGAGGAAGGAAGAAGTGTTAAGG	-1.3
AACACACCATGTACAGAGAGCATTCTGCTG	-1.32
TTTCTGTATCTCTTCGCCTTGCTTATCTGG	1.38
TCTCTGAGCAGTCAAACTGGTTTCTTGTCT	0.977
CCACAGAATCGCCCCACCCTGCCTGGGTAG	1.23
ACGGCAAGCCATAGTTAACCCAGAAGACTG	-1.24
CCACTCCAGCCTCTCCACCAGGGGACCAGG	-1.48
TGTCCTTTGTCCCCCACCTGTGAAGATAAG	4.07
